We go through 78 compounds from the supplement of paper PMC8183993.

Structures can show the parent of a compound that is named as a salt. ± gives the standard deviation of the averaged measurements. The full ranking holds about 3,200 compounds; the median of “nuclei count (viability) relative to DMSO” is about 99, and the lowest 2% start at about 16. Some of the results follow.

The experiment relates to U2OS. The experiment is described as follows: nuclei count (viability) relative to DMSO (% of DMSO); higher = more viable cells. Conditions: 10 µM; 24 h. As to the method:
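Primary image-based screen in U2OS cells: compounds at 10 uM for 24 h, then a 1 h o-propargyl-puromycin (OPP) pulse, click labelling, and high-throughput microscopy. Mean cytoplasmic OPP intensity and nuclei count were normalised to DMSO wells within each plate (DMSO = 100) and averaged over triplicate plates.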
`Nc1nc(O)c2ncn(CCC(CO)CO)c2n1` [Penciclovir] displayed a nuclei count of 104.
Next, `Fc1ccc([C@@H]2CCNC[C@H]2COc2ccc3c(c2)OCO3)cc1` [Paroxetine maleate]: 97.8.
Under `Fc1ccc([C@@H]2CCNC[C@H]2COc2ccc3c(c2)OCO3)cc1` [Paroxetine Hydrochloride] stands 91.4.
As for `NCC[C@H](O)C(=O)N[C@@H]1C[C@H](N)[C@@H](O[C@H]2O[C@H](CN)[C@@H](O)[C@H](O)[C@H]2O)[C@H](O)[C@H]1O[C@H]1O[C@H](CO)[C@@H](O)[C@H](N)[C@H]1O` [Amikacin hydrate], the nuclei count was determined as 97.8 ± 8.5.
In turn, `NCC[C@H](O)C(=O)N[C@@H]1C[C@H](N)[C@@H](O[C@H]2O[C@H](CN)[C@@H](O)[C@H](O)[C@H]2O)[C@H](O)[C@H]1O[C@H]1O[C@H](CO)[C@@H](O)[C@H](N)[C@H]1O` [Amikacin sulfate] displayed a nuclei count of 98.7.
Next, `CCCCCCN(CCCCCC)C(=O)Cc1c(-c2ccc(Cl)cc2)[nH]c2ccc(Cl)cc12`: 78.7; `COc1ccc(CCN(C)CCCOc2ccc(S(=O)(=O)c3c(C(C)C)c4ccccc4n3C)cc2)cc1OC`: 27.4.
In turn, `O=C1c2cccc3c2[C@H](CCC3)CN1[C@@H]1CN2CCC1CC2` [Palonosetron HCl] displayed a nuclei count of 101.
Under `O=C(O)CSCC(=O)NC1CCSC1=O` (stereo not drawn) [Erdosteine] stands 95.4; under `Cc1cc2c(F)c(Oc3ncnn4cc(OC[C@@H](C)O)c(C)c34)ccc2[nH]1`, 89.3 ± 14.
Next, `COc1cc(/C=C/C(=O)CC(=O)/C=C/c2ccc(O)c(OC)c2)ccc1O` [Curcumin]: 58.5 ± 14; `CCC(=O)NC1CCc2cccc(OC)c2C1` (stereo not drawn): 100; `OCCN1C[C@H](O)[C@@H](O)[C@H](O)[C@H]1CO` [Miglitol]: 92.9.
Next, `OCCN1C[C@H](O)[C@@H](O)[C@H](O)[C@H]1CO` [Miglitol (Glyset)]: 100.
Compound `Cc1c(CCOc2ccc(C(=O)O)cc2)c2cc(Cl)ccc2n1C(c1ccccc1)c1ccccc1` gave a nuclei count of 103.
Next, `S=C(NCc1ccc2c(c1)OCO2)N1CCN(c2ncnc3c2oc2ccccc23)CC1` [Amuvatinib (MP-470)]: 96; `N[C@@H](Cc1cc(-c2ccc(Cl)cc2Cl)cc(CP(=O)(O)O)c1O)C(=O)O`: 75.8; `CC1(C)CCC2=C(O1)c1ccccc1C(=O)C2=O`: 47.5.
Next, `CC(=O)OCC[N+](C)(C)C` [Acetylcholine chloride]: 93.9.
Under `C/C(=N\NC(=O)C1C(=O)NCC1c1ccccc1)c1cccc(Br)c1` (stereo not drawn) stands 107.
`NCCCCCCCCCCNS(=O)(=O)c1cccc2c(Cl)cccc12` [A-7 hydrochloride] returned a nuclei count of 81.3.
Next, `Cn1cnc([N+](=O)[O-])c1Sc1ncnc2[nH]cnc12` [Azathioprine]: 103; `Cn1cnc([N+](=O)[O-])c1Sc1ncnc2[nH]cnc12` [Azathioprine (Azasan, Imuran)]: 97.5; `CC(=O)Oc1cc2c(s1)CCN(C(C(=O)C1CC1)c1ccccc1F)C2` (stereo not drawn) [Prasugrel (Effient)]: 98.4.
Next, `CC(C)C(=O)Nc1ccc([N+](=O)[O-])c(C(F)(F)F)c1` [Flutamide]: 94.2; `O=C(/C=C/N1C[C@H]2C[C@@H]1CN2c1ccccn1)c1ccccc1O`: 103.
Next, `CC1COc2c(N3CCN(C)CC3)c(F)cc3c(=O)c(C(=O)O)cn1c23` (stereo not drawn) [Ofloxacin]: 105; `O=C(O)CCCC[C@@H]1SC[C@@H]2NC(=O)N[C@@H]21` [Biotin]: 105; `O=C(O)CCCC[C@@H]1SC[C@@H]2NC(=O)N[C@@H]21` [Biotin (Vitamin B7)]: 106.
As for `COCC(=O)Nc1c(I)c(C(=O)NCC(O)CO)c(I)c(C(=O)N(C)CC(O)CO)c1I` (stereo not drawn) [Iopromide], the nuclei count was found to be 106.
Next, `C[C@@]1(O)CCOC(=O)C1` [Mevalonic-D, L acid lactone]: 104; `CCOC(=O)Nc1ccc(NCc2ccc(F)cc2)nc1N` [Flupirtine maleate]: 98; `COC(=O)C1=C(C)NC(C)=C(C(=O)OC(C)C)C1c1cccc2nonc12` (stereo not drawn) [Isradipine]: 102 ± 2.5.
Under `O=C1OC(OC(=O)c2cccnc2Nc2cccc(C(F)(F)F)c2)c2ccccc21` (stereo not drawn) [Talniflumate] stands 84; under `Cn1c(Nc2ccc(C(F)(F)F)cc2)nc2cc(Oc3ccnc(-c4ncc(C(F)(F)F)[nH]4)c3)ccc21`, 94.8.
Next, `COc1cc(OC)c(C(=O)CCCCN2CCC3(CC2)NC(=O)NC3=O)cc1NS(=O)(=O)c1ccc(C(F)(F)F)cc1`: 53.6; `C[C@H](CCC(=O)O)[C@H]1CC[C@H]2[C@@H]3CC[C@@H]4C[C@H](O)CC[C@]4(C)[C@H]3CC[C@]12C` [Lithocholic acid]: 99.5 ± 6.5.
Compound `N[C@@H](CSCCCO)C(=O)O` [Fudosteine] returned a nuclei count of 110.
Under `CC(=O)SCC(Cc1ccccc1)C(=O)NCC(=O)OCc1ccccc1` (stereo not drawn) [Racecadotril] stands 96.8.
Under `Nc1nc2[nH]cc(CCc3ccc(C(=O)N[C@@H](CCC(=O)O)C(=O)O)cc3)c2c(=O)[nH]1` [Pemetrexed (Alimta)] stands 75.8; under `CCN1CCN(Cc2ccc(Nc3ncc(F)c(-c4cc(F)c5nc(C)n(C(C)C)c5c4)n3)nc2)CC1`, 37.8; under `COc1ccc(C(=O)c2ccccc2O)c(O)c1` [Dioxybenzone], 97.3.
Next, `CC(C)(C)NC[C@H](O)COc1ccccc1C1CCCC1` [Penbutolol sulfate]: 108; `CC(C)Cc1ccc(C(C)C(=O)O)cc1` (stereo not drawn) [Ibuprofen Lysine (NeoProfen)]: 101; `CN(C(=O)c1c(O)c2ccccc2n(C)c1=O)c1ccccc1` [Linomide]: 87.9.
`O=C(O)C1(C(=O)O)CCC1.[NH2-].[NH2-].[Pt+2]` [Carboplatin] gave a nuclei count of 100.
Under `COc1ccc(CC(=O)NC(/N=C(\NC#N)Nc2cccc3ncccc23)C(C)(C)C)cc1OC` (stereo not drawn) stands 103; under `O=c1c(O)c(-c2ccc(O)c(O)c2)oc2cc(O)cc(O)c12` [Quercetin], 90.7 ± 6.4; under `O=c1c(O)c(-c2ccc(O)c(O)c2)oc2cc(O)cc(O)c12` [Quercetin (Sophoretin)], 83.8.
Under `O=C(Nc1ccc([N+](=O)[O-])cc1O)Nc1ccccc1Br` stands 23.5.
With `Cc1cnc(C(=O)O)c[n+]1[O-]` [Acipimox], the nuclei count came out at 111.
Next, `CC(=O)Oc1ccccc1C(=O)Oc1cccc(CO[N+](=O)[O-])c1`: 87.8.
Under `COc1ccc2cccc(N3CCN(CCNC(=O)c4ccc(F)cc4)CC3)c2c1` stands 104.
In the case of `O=C(O)[C@H]1/C(=C/CO)O[C@@H]2CC(=O)N21` [Clavulanate potassium salt], the nuclei count was found to be 107.
As for `O=C(OCCOCCO)c1ccccc1Nc1cccc(C(F)(F)F)c1` [Etofenamate], the nuclei count is 89.4.
Next, `NS(=O)(=O)c1cc2c(cc1Cl)NC(CC1CCCC1)NS2(=O)=O` (stereo not drawn) [Cyclopenthiazide]: 108.
Next, `O=C(O)CCCCC1CCSS1` (racemic) [DL-?-Lipoic acid]: 106; `CC(C)(C)NCC(O)c1cc(O)cc(O)c1` (stereo not drawn) [Terbutaline hemisulfate]: 104.
Under `CCOC(=O)[N-]c1c[n+](N2CCOCC2)no1` [Molsidomine] stands 97.4; under `CC[N+](CC)(CC)CCOc1cccc(OCC[N+](CC)(CC)CC)c1OCC[N+](CC)(CC)CC` [Gallamine triethiodide], 103.
With `C#C[C@]1(O)CC[C@H]2[C@@H]3CCC4=C(CCC(=O)C4)[C@H]3CC[C@@]21C` [Norethynodrel], the nuclei count was found to be 90.
Under `C=C(c1ccc(C(=O)O)cc1)c1cc2c(cc1C)C(C)(C)CCC2(C)C` [Bexarotene] stands 103; under `c1ccc(-c2n[nH]c3c2oc2ccccc23)cc1`, 100; under `CC/C(=C(\c1ccccc1)c1ccc(OCCN(C)C)cc1)c1ccccc1` [Tamoxifen citrate], 100 ± 4.3.
Under `CC/C(=C(\c1ccccc1)c1ccc(OCCN(C)C)cc1)c1ccccc1` [Tamoxifen] stands 91.7; under `CCc1oc2ccccc2c1C(=O)c1cc(Br)c(O)c(Br)c1` [Benzbromarone], 114.
Next, `c1ccc2oc(C3=NCCN3)cc2c1` [2-BFI hydrochloride]: 100.
Take `NCc1ccc(S(N)(=O)=O)cc1` [Mafenide hydrochloride]: the nuclei count was 101.
The compound `CN[C@@H]1[C@H](O[C@H]2[C@H](O[C@H]3[C@H](O)[C@@H](O)[C@H](NC(=N)N)[C@@H](O)[C@@H]3NC(=N)N)O[C@@H](C)[C@]2(O)CO)O[C@@H](CO)[C@H](O)[C@H]1O` [Dihydrostreptomycin sulfate] registered a nuclei count of 99.9.
Take `CCN(CCCOc1ccc2c(Nc3cc(CC(=O)Nc4cccc(F)c4)[nH]n3)ncnc2c1)CCOP(=O)(O)O` [Barasertib (AZD1152-HQPA)]: the nuclei count was 55.1.
Next, `O=c1[nH]nc(Sc2ncc([N+](=O)[O-])s2)n1-c1ccc2c(c1)OCCO2`: 6.42 ± 2.8; `Cc1ccccc1N=Nc1ccc(NC(=O)c2ccnn2C)c(C)c1`: 110; `NC(N)=NCCC[C@H](NC(=O)[C@@H]1CCCN1C(=O)[C@H](N)Cc1ccccc1)C(=O)CCl`: 96.4.
Next, `CCN1CCC[C@H]1CNC(=O)c1c(O)c(Cl)cc(Cl)c1OC` [Raclopride]: 99.1 ± 4.2.
Next, `CC[C@@H]([C@H](C)O)n1ncn(-c2ccc(N3CCN(c4ccc(OC[C@@H]5CO[C@@](Cn6cncn6)(c6ccc(F)cc6F)C5)cc4)CC3)cc2)c1=O` [Posaconazole]: 93.3; `COC(=O)[C@]12CCC(C)(C)C[C@H]1[C@H]1C(=O)C=C3[C@@]4(C)C=C(C#N)C(=O)C(C)(C)[C@@H]4CC[C@@]3(C)[C@]1(C)CC2` [Bardoxolone Methyl]: 4.35.
As to `CCCCC[C@H](O)/C=C/[C@H]1[C@H](O)CC(=O)[C@@H]1CCCCCCC(=O)O` [Alprostadil (Caverject)], the nuclei count stood at 94.3.
Under `CCCCC[C@H](O)/C=C/[C@H]1[C@H](O)CC(=O)[C@@H]1CCCCCCC(=O)O` [Alprostadil] stands 104 ± 2.1.
